Reference: the supplement of paper PMC8948288
Shown are siRNA guide strands that differ only in the seed, positions 2 to 7.

Columns and labels:
H4 = test: cell viability relative to siNT1 (ATP content); H4 human neuroglioma and GL261 mouse glioma; higher = less toxic; details: siRNA concentration 10 nM; 96 h; human
GL261 = test: as above; details: siRNA concentration 25 nM; 96 h; mouse
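Further: cells reverse transfected with siRNA duplexes via lipid reagent, ATP read by luminescence, triplicate wells, values scaled to mean viability with non-targeting control siNT1.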

Sequence	cell viability (H4) [%]	cell viability (GL261) [%]
UGCAUUAACAUGUAAACCA	65.1	87.7
UGCAUUCACAUGUAAACCA	59.9	85.4
UGCAUUGACAUGUAAACCA	81.6	64.6
UGCAUUUACAUGUAAACCA	56.2	33.7
UGCCAAAACAUGUAAACCA	86.1	42.5
UGCCAACACAUGUAAACCA	74.2	35.9
UGCCAAGACAUGUAAACCA	63.9	43.6
UGCCAAUACAUGUAAACCA	105	40.7
UGCCACAACAUGUAAACCA	71.5	33.9
UGCCACCACAUGUAAACCA	67.7	12.9
UGCCACGACAUGUAAACCA	61.5	30.9
UGCCACUACAUGUAAACCA	48.8	31.8
UGCCAGAACAUGUAAACCA	81.1	45.9
UGCCAGCACAUGUAAACCA	20.9	7.68
UGCCAGGACAUGUAAACCA	5.83	24.9
UGCCAGUACAUGUAAACCA	56.5	15.4
UGCCAUAACAUGUAAACCA	95.6	53.3
UGCCAUCACAUGUAAACCA	4.51	10.3
UGCCAUGACAUGUAAACCA	50	43.6
UGCCAUUACAUGUAAACCA	74.7	36.2
UGCCCAAACAUGUAAACCA	84.1	38.2
UGCCCACACAUGUAAACCA	69.2	31.8
UGCCCAGACAUGUAAACCA	67	24.1
UGCCCAUACAUGUAAACCA	76.3	47.4

Sequence	cell viability (H4) [%]	cell viability (GL261) [%]
UGCCCCAACAUGUAAACCA	85.6	47.4
UGCCCCCACAUGUAAACCA	30.5	34.6
UGCCCCGACAUGUAAACCA	74.5	45.2
UGCCCCUACAUGUAAACCA	94.7	47.6
UGCCCGAACAUGUAAACCA	76.2	59.4
UGCCCGCACAUGUAAACCA	67	70.9
UGCCCGGACAUGUAAACCA	61.4	59.9
UGCCCGUACAUGUAAACCA	84.7	44.2
UGCCCUAACAUGUAAACCA	84.4	61.6
UGCCCUCACAUGUAAACCA	9.65	8.96
UGCCCUGACAUGUAAACCA	102	30.5
UGCCCUUACAUGUAAACCA	64.8	20.2
UGCCGAAACAUGUAAACCA	88.5	65.9
UGCCGACACAUGUAAACCA	11.6	26.2
UGCCGAGACAUGUAAACCA	86.8	42.5
UGCCGAUACAUGUAAACCA	74.1	43.6
UGCCGCAACAUGUAAACCA	103	27.9
UGCCGCCACAUGUAAACCA	58.4	10.9
UGCCGCGACAUGUAAACCA	78.4	38.6
UGCCGCUACAUGUAAACCA	42	26.1
UGCCGGAACAUGUAAACCA	60.4	48.7
UGCCGGCACAUGUAAACCA	27.8	32.2
UGCCGGGACAUGUAAACCA	55.6	24.2
UGCCGGUACAUGUAAACCA	26.1	42.8

Sequence	cell viability (H4) [%]	cell viability (GL261) [%]
UGCCGUAACAUGUAAACCA	86.3	57.5
UGCCGUCACAUGUAAACCA	68.3	16.1
UGCCGUGACAUGUAAACCA	97.6	35
UGCCGUUACAUGUAAACCA	76.2	38.6
UGCCUAAACAUGUAAACCA	84	51.8
UGCCUACACAUGUAAACCA	43.5	27.7
UGCCUAGACAUGUAAACCA	97.1	57.2
UGCCUAUACAUGUAAACCA	48.7	40.2
UGCCUCAACAUGUAAACCA	52.2	49.4
UGCCUCCACAUGUAAACCA	31.4	36.4
UGCCUCGACAUGUAAACCA	51	55.9
UGCCUCUACAUGUAAACCA	55	32.7
UGCCUGAACAUGUAAACCA	50.8	45.6
UGCCUGCACAUGUAAACCA	5.97	14.5
UGCCUGGACAUGUAAACCA	25.6	22.2
UGCCUGUACAUGUAAACCA	8.62	34
UGCCUUAACAUGUAAACCA	57.9	82.9
UGCCUUCACAUGUAAACCA	4.51	8.92
UGCCUUGACAUGUAAACCA	62.8	72.4
UGCCUUUACAUGUAAACCA	24.7	19.3
UGCGAAAACAUGUAAACCA	113	47.6
UGCGAACACAUGUAAACCA	75	63.5
UGCGAAGACAUGUAAACCA	93.9	50.2
UGCGAAUACAUGUAAACCA	96.3	39.7

Sequence	cell viability (H4) [%]	cell viability (GL261) [%]
UGCGACAACAUGUAAACCA	82.9	40.2
UGCGACCACAUGUAAACCA	26.3	36.6
UGCGACGACAUGUAAACCA	73.8	38.4
UGCGACUACAUGUAAACCA	75.1	25.2
UGCGAGAACAUGUAAACCA	97.1	49.2
UGCGAGCACAUGUAAACCA	72.7	25.2
UGCGAGGACAUGUAAACCA	72.1	20.8
UGCGAGUACAUGUAAACCA	21.5	56.7
UGCGAUAACAUGUAAACCA	45.2	69.3
UGCGAUCACAUGUAAACCA	55.5	28.6
UGCGAUGACAUGUAAACCA	82.9	44.4
UGCGAUUACAUGUAAACCA	85.2	46.8
UGCGCAAACAUGUAAACCA	104	68.4
UGCGCACACAUGUAAACCA	111	29.5
UGCGCAGACAUGUAAACCA	57.7	40.6
UGCGCAUACAUGUAAACCA	84	45.6
UGCGCCAACAUGUAAACCA	85.9	41.9
UGCGCCCACAUGUAAACCA	53	33.1
UGCGCCGACAUGUAAACCA	87.6	34.9
UGCGCCUACAUGUAAACCA	56.6	57
UGCGCGAACAUGUAAACCA	75.8	53.6
UGCGCGCACAUGUAAACCA	73.3	49.1
UGCGCGGACAUGUAAACCA	70.1	21.4
UGCGCGUACAUGUAAACCA	96.8	46.3

Sequence	cell viability (H4) [%]	cell viability (GL261) [%]
UGCGCUAACAUGUAAACCA	117	55.5
UGCGCUCACAUGUAAACCA	66.6	21.5
UGCGCUGACAUGUAAACCA	65.4	47.2
UGCGCUUACAUGUAAACCA	122	27.1
UGCGGAAACAUGUAAACCA	67	40.5
UGCGGACACAUGUAAACCA	35.6	14
UGCGGAGACAUGUAAACCA	42.4	24.1
UGCGGAUACAUGUAAACCA	50.2	20
UGCGGCAACAUGUAAACCA	39.3	14.3
UGCGGCCACAUGUAAACCA	50.6	13.7
UGCGGCGACAUGUAAACCA	11.9	5.9
UGCGGCUACAUGUAAACCA	14.1	11.6
UGCGGGAACAUGUAAACCA	39.5	23.3
UGCGGGCACAUGUAAACCA	16.7	12.4
UGCGGGGACAUGUAAACCA	10.9	13
UGCGGGUACAUGUAAACCA	44.3	20.8
UGCGGUAACAUGUAAACCA	67.9	36.6
UGCGGUCACAUGUAAACCA	7.79	5.54
UGCGGUGACAUGUAAACCA	31.5	31.4
UGCGGUUACAUGUAAACCA	47.7	27.7
UGCGUAAACAUGUAAACCA	90.6	47.5
UGCGUACACAUGUAAACCA	128	55.4
